The list shows a part of the results. The full chains were built here from the parent and the listed change. Values near 0.05 are background.
B1: TEV protease; numbered along this chain (parent)
chain: MGESLFKGPRDYNPISSSICHLTNESDGHTTSLYGIGFGPFIITNKHLFRRNNGTLVVQSLHGVFKVKDTTTLQQHLVDGRDMIIIRMPKDFPPFPQKLKFREPQREERICLVTTNFQTKSMSSMVSDTSCTFPSGDGIFWKHWIQTKDGQCGSPLVSTRDGFIVGIHSASNFTNTNNYFTSVPKNFMELLTNQEAQQWVSGWRLNADSVLWGGHKVFMVKPEEPFQPVKEATQL

Variants of: B1
Assay: raw area under fraction-flipped curve 0-4 h after induction (AUC4h, not background-subtracted), DNA-recorder readout of cleavage of the substrate (dimensionless); higher = more cleavage of the substrate by the protease variant
Settings: temperature: 34 °C; time window: 0-4 h after rhamnose induction
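Further: Bxb1 expression induced with 0.2% (w/v) L-rhamnose at OD600 near 0.5, cultures sampled hourly, flipped fraction per protease–substrate barcode pair counted by paired-end Illumina sequencing.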

| Variant | area with substrate ENLDFQS | area with substrate ENLIFQS | area with substrate ENLKFQS | area with substrate ENLNFQS | area with substrate ENLQFQS | area with substrate ENLRFQS | area with substrate ENLEFQS | area with substrate ENLHFQS | area with substrate ENLLFQS | area with substrate ENLPFQS | area with substrate ENLVFQS | area with substrate ENLWFQS | area with substrate ENLFFQS | area with substrate ENLGFQS | area with substrate ENLSFQS | area with substrate ENLTFQS | area with substrate ENLMFQS | area with substrate ENLCFQS |
| --- | --- | --- | --- | --- | --- | --- | --- | --- | --- | --- | --- | --- | --- | --- | --- | --- | --- | --- |
| T115P | 0.0566 | 0.0935 | 0.0646 | 0.0712 | 0.0892 | 0.0741 | – | – | – | – | – | – | – | – | – | – | – | – |
| M88S | 0.0563 | 0.0848 | 0.0621 | 0.0599 | – | 0.0729 | 0.0455 | 0.158 | 0.0927 | 0.0554 | 0.0737 | 0.0735 | – | – | – | – | – | – |
| I84Q | 0.0651 | 0.0719 | 0.0708 | 0.0718 | – | 0.066 | 0.0547 | – | – | 0.0636 | 0.0652 | – | – | – | – | – | – | – |
| F133T | 0.0767 | – | – | 0.052 | 0.0786 | 0.0803 | 0.068 | 0.0875 | – | 0.0669 | – | 0.08 | 0.0897 | – | – | – | – | – |
| P155R | 0.05 | – | 0.0604 | 0.049 | 0.0555 | – | – | 0.0479 | 0.0388 | 0.0516 | 0.0476 | – | 0.0902 | 0.0506 | 0.0443 | 0.0601 | – | – |
| L61S | 0.0625 | – | 0.0838 | 0.0728 | – | – | – | 0.0662 | 0.0735 | – | – | – | – | 0.0721 | – | – | – | – |
| L61V | 0.0588 | – | – | 0.0804 | – | 0.0664 | – | 0.0751 | – | 0.0699 | 0.107 | – | 0.0816 | 0.0611 | 0.0714 | – | – | – |
| L33E | 0.0606 | – | 0.0778 | 0.0618 | – | 0.0637 | 0.0623 | 0.0574 | 0.0822 | 0.0631 | 0.0542 | 0.064 | 0.0559 | – | 0.0644 | – | – | – |
| T55K | 0.0471 | 0.0845 | 0.0796 | 0.0601 | 0.0586 | 0.0744 | 0.0478 | 0.0714 | 0.0636 | 0.0536 | 0.0681 | 0.0481 | 0.086 | – | 0.066 | – | – | – |
| T55H | 0.0599 | 0.0807 | – | 0.0542 | 0.0339 | – | 0.0617 | – | 0.0678 | 0.0434 | – | – | 0.0827 | – | 0.0739 | – | – | – |
| P96G | 0.0761 | – | 0.0572 | 0.0635 | – | – | – | 0.0686 | – | 0.0708 | – | – | 0.08 | – | 0.0744 | – | – | – |
| V58E | 0.0509 | – | 0.0421 | – | – | – | – | 0.0504 | – | – | – | – | – | – | – | – | 0.0383 | – |
| V58T | 0.0651 | – | 0.0942 | – | – | 0.0459 | 0.0491 | – | – | – | – | – | – | – | – | – | – | – |
| T31H | 0.0566 | – | 0.0786 | 0.0579 | 0.0613 | – | 0.0602 | – | 0.0703 | 0.0454 | 0.0778 | 0.0675 | 0.0784 | 0.0702 | 0.0436 | – | 0.0562 | – |
| P93Q | 0.0728 | 0.0843 | 0.0659 | – | – | – | 0.0671 | – | – | 0.0605 | – | – | 0.0771 | – | 0.0815 | – | – | – |
| P93N | 0.0626 | 0.087 | – | 0.0567 | – | – | – | 0.0636 | – | 0.0629 | – | – | 0.0913 | – | – | – | – | – |
| V229P | 0.0614 | 0.0724 | 0.0781 | 0.058 | – | 0.0752 | 0.0638 | 0.0839 | 0.0694 | 0.0658 | 0.106 | 0.0565 | 0.0801 | – | 0.0537 | – | 0.0839 | 0.0635 |
| T159F | 0.0671 | 0.0875 | 0.0744 | – | – | 0.0989 | 0.0448 | – | – | – | – | 0.0723 | 0.15 | – | – | – | 0.0744 | – |

| Variant | area with substrate ENLDFQS | area with substrate ENLIFQS | area with substrate ENLKFQS | area with substrate ENLNFQS | area with substrate ENLQFQS | area with substrate ENLRFQS | area with substrate ENLEFQS | area with substrate ENLHFQS | area with substrate ENLLFQS | area with substrate ENLPFQS | area with substrate ENLVFQS | area with substrate ENLWFQS | area with substrate ENLFFQS | area with substrate ENLGFQS | area with substrate ENLSFQS | area with substrate ENLTFQS | area with substrate ENLMFQS | area with substrate ENLCFQS |
| --- | --- | --- | --- | --- | --- | --- | --- | --- | --- | --- | --- | --- | --- | --- | --- | --- | --- | --- |
| T132L | 0.0594 | 0.0755 | 0.0619 | 0.0832 | 0.0666 | 0.0654 | 0.0743 | 0.0609 | – | 0.0599 | 0.0572 | 0.0527 | 0.0797 | 0.0605 | 0.0848 | – | – | – |
| T132W | 0.087 | – | 0.0656 | 0.0607 | 0.0702 | 0.0471 | 0.0606 | 0.0559 | 0.071 | 0.0496 | – | 0.0548 | 0.0618 | – | 0.0488 | – | – | – |
| G63K | 0.0543 | – | – | 0.0633 | – | – | – | 0.0626 | – | 0.0573 | – | 0.0645 | – | – | – | – | – | – |
| Q227Y | – | 0.0855 | 0.0728 | 0.0674 | 0.0645 | 0.0643 | – | 0.069 | – | 0.0667 | 0.0553 | 0.0702 | 0.0956 | – | 0.063 | – | – | 0.0657 |
| M122S | 0.0575 | – | – | 0.0637 | 0.0799 | 0.0704 | – | 0.064 | – | – | – | 0.0602 | 0.085 | – | – | – | 0.074 | – |
| S135Q | 0.0634 | 0.0847 | 0.0642 | 0.0657 | – | 0.0505 | 0.0515 | 0.057 | 0.0605 | 0.0557 | – | 0.0504 | 0.0512 | – | 0.0657 | – | 0.0489 | – |
| T30V | 0.116 | – | – | 0.0695 | 0.0899 | – | 0.0575 | 0.0689 | – | 0.0462 | – | – | 0.107 | – | 0.0669 | – | – | – |
| W141T | 0.0569 | – | – | 0.0593 | 0.0541 | – | 0.0617 | 0.0563 | 0.057 | 0.0603 | 0.0695 | 0.0567 | – | 0.0746 | – | 0.0632 | – | – |
| I164S | 0.0679 | 0.051 | 0.0501 | 0.0458 | 0.0454 | 0.0599 | – | 0.0551 | 0.056 | 0.051 | – | 0.052 | 0.0738 | – | 0.0592 | – | – | – |
| R87P | 0.0626 | 0.057 | – | – | – | – | – | 0.0549 | 0.0513 | 0.0674 | 0.0586 | – | 0.0589 | 0.0735 | 0.0626 | – | 0.0425 | – |
| R87K | 0.0633 | – | – | – | 0.0656 | 0.113 | – | – | – | – | – | – | – | – | 0.0697 | – | – | – |
| R87W | 0.0589 | 0.0817 | – | 0.0887 | 0.0607 | 0.0618 | – | 0.0665 | – | – | – | 0.071 | 0.0597 | 0.0672 | – | – | – | – |
| S121C | 0.0555 | 0.0914 | 0.0881 | 0.0682 | 0.084 | 0.0635 | 0.0633 | 0.0723 | – | 0.0755 | – | 0.0817 | 0.112 | – | 0.0649 | 0.0674 | – | – |
| D91V | 0.0647 | 0.0682 | 0.0839 | 0.0618 | 0.0682 | 0.0668 | – | – | – | 0.0577 | 0.0613 | – | 0.0874 | – | – | – | – | – |
| D91L | 0.0568 | – | 0.063 | 0.0771 | – | – | – | – | 0.0588 | – | – | – | 0.0745 | – | – | – | – | – |
| S171T | 0.0575 | 0.108 | 0.0758 | – | – | – | – | 0.0774 | – | 0.0478 | – | – | – | – | – | – | – | – |
| T71I | 0.0585 | 0.0597 | 0.0827 | 0.0694 | 0.0601 | – | – | – | – | 0.0587 | 0.0735 | 0.0571 | 0.0711 | – | 0.0928 | – | 0.0637 | – |
| V78K | 0.0583 | 0.0552 | 0.072 | 0.0573 | – | 0.0588 | 0.0485 | – | 0.0539 | 0.0523 | – | – | 0.0705 | – | 0.0454 | – | – | – |

— the supplement of paper PMC12217912
